Data taken from the supplement of paper PMC4723716.
± gives the uncertainty stated by the source. Over roughly 9,900 compounds, “viability index relative to DMSO control” has its median near 1; the lowest 2% begin near 0.85. The list shows a part of the results.

test system: Plasmodium falciparum NF54 stage V gametocytes; assay: viability index relative to DMSO control (fraction); higher = less gametocyte killing; details: 2.5 µM, library set: Broad Institute DOS, incubation time: 72 h
Outline: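 Viability index is the count of red-stained particles in a well divided by the plate mean of solvent-only wells. Particles of 20–70 µm2 were counted in one imaged field per well after one to two hours with 3 µl of 2.5 µM MitoTracker Red CMXRos and 0.13% saponin. Before staining, P. falciparum NF54 stage V gametocytes in serum-free medium (0.75% gametocytemia, 1.25% hematocrit, 10 µl, 1,536-well plates) were kept with compound at 2.5 µM for 72 hr at 37°C under low oxygen.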

Compound | viability index
O=C(C[C@H]1C[C@H]2c3cc(NS(=O)(=O)c4ccc(F)cc4)ccc3O[C@H]2[C@H](CO)O1)NCc1cccnc1 | 1.0511 ± 0.001
COc1cccc(C(=O)Nc2ccc3c(c2)C(=O)N(C)[C@H]2CC[C@@H](CC(=O)N[C@@H](C)c4ccccc4)O[C@@H]2CO3)c1 | 1.14 ± 0.094
COc1ccc(NC(=O)N2CC(=O)N3[C@H](CO)[C@@H](c4ccc(Br)cc4)[C@@H]3C2)cc1 | 1.04 ± 0.031
Cc1noc(C)c1S(=O)(=O)N(C)C[C@@H]1OCCCC[C@@H](C)Oc2ccc(N(C)C)cc2C(=O)N([C@@H](C)CO)C[C@H]1C | 0.635 ± 0.13
COc1ccc([C@@H]2C/C=C\C[C@@H](c3ccc4c(c3)OCO4)NC(=O)[C@H](c3ccccc3)CC(=O)N2)c(OC)c1 | 0.919 ± 0.075
CN(C)C(=O)c1ccc(-c2ccc([C@H]3[C@@H]4CN(C(=O)C5CC5)C[C@H]3N4)cc2)cc1 | 1.05 ± 0.054
COc1ccc2c3c([nH]c2c1)[C@H](CO)NC[C@]31CN(C1)S(=O)(=O)c1cccs1 | 1.03 ± 0.026
C[C@@H]1CN([C@H](C)CO)C(=O)c2cc(C#Cc3ccccc3)cnc2O[C@H]1CN(C)C(=O)c1ccccc1 | 0.965 ± 0.019
Cn1cnc(S(=O)(=O)N2CC[C@@H]3[C@H](CO)Nc4ccc(C5=CCCCC5)cc4[C@@H]32)c1 | 1.05 ± 0.08
O=S(=O)(c1cccc(F)c1)N1CC[C@@H]2[C@@H](CO)Nc3ccc(C#Cc4ccccc4F)cc3[C@@H]21 | 1.07 ± 0.025
CCCNC(=O)N1[C@H](C#N)[C@@H](c2ccc(-c3ccccc3F)cc2)[C@@H]1CO | 1.08 ± 0.053
COc1ccc(NC(=O)N2CC(=O)N3[C@H](CO)[C@H](c4ccc(Br)cc4)[C@H]3C2)cc1 | 0.988 ± 0.017
CN(C)CC(=O)N1[C@H](CO)[C@H](c2ccc(C#CC3CCCCC3)cc2)[C@@H]1C#N | 1.09 ± 0.038
N#C[C@H]1[C@@H](c2ccccc2C2=CCCC2)[C@@H](CO)N1C(=O)NC1CCCCC1 | 1.07 ± 0.11
C[C@@H]1CCCCO[C@@H](CN(C)C(=O)CCC(F)(F)F)[C@@H](C)CN([C@@H](C)CO)C(=O)c2cc(NC(=O)C3CCCCC3)ccc2O1 | 1.08 ± 0.13
COCC(=O)Nc1ccc2c(c1)C(=O)N(C)C[C@H](OC)[C@@H](C)CN(C(=O)c1ccncc1)[C@@H](C)CO2 | 1.13 ± 0.027
Cc1ccc(S(=O)(=O)Nc2ccc3c(c2)C(=O)N(C)[C@H]2CC[C@H](CC(=O)NCCc4ccncc4)O[C@H]2CO3)cc1 | 1.01 ± 0.021
CO[C@@H]1CC[C@H]2CCOc3ccc(C#N)cc3C(=O)N(C)[C@@H](C)C(=O)N(C)C[C@@H]1O2 | 0.987 ± 0.024
C/C=C/c1ccc([C@@H]2[C@@H](CNC(=O)CC3CC3)N(C(=O)CC)[C@H]2CO)cc1 | 0.994 ± 0.033
